Assay results taken from ChEMBL document CHEMBL4888484, “Replenishing the malaria drug discovery pipeline: Screening and hit evaluation of the MMV Hit Generation Library 1 (HGL1) against asexual blood stage Plasmodium falciparum ,using a nano luciferase reporter read-out” (2022).
Screen size: about 150,000 compounds; about 540 (0.36%) showed an effect of 50% or more. The list shows a part of the results.

Each molecule was assayed on Plasmodium falciparum (assay: Primary screen in NF54 nanoGlo assay, in single point, at 2uM, 72h; a lower Z score goes with more inhibition). Details: timepoint 72 hour.
Assay type: functional, Erythrocyte

Row | SMILES | % Inhibition | Z score
1 | O=C1COc2cc(NS(=O)(=O)c3cc(F)ccc3F)c(Br)cc2N1 | 0% | 0.02
2 | Cc1cc(C(=O)N2CCN(c3cc(Cl)ccc3C)CC2)on1 | -17% | 1.59
3 | CCc1csc(CNC(=O)c2ccc(N3CCN4CCC[C@H]4C3)nc2)n1 | -5% | 0.87
4 | COc1ccc(-n2nc(C)c3c2NC(=O)C[C@@H]3c2ccc(C(C)C)cc2)nn1 | -6% | 1.1
5 | CC(C)c1nnc(-c2ccc3c(c2)OCO3)o1 | -9% | 1.29
6 | Cn1cc([C@H]2CN(C/C=C/c3ccccc3)C[C@H]2CC(=O)O)nn1 | -19% | 1.89
7 | CC#CCN1C(=O)N[C@@](CCCc2ccccc2)(C2CCN(Cc3cc4ccccc4[nH]3)CC2)C1=O | 17% | -2.15
8 | Cn1c2c(c3ccccc31)C(C)(C)Cc1c-2cnn1-c1ccccc1 | -10% | 1.87
9 | O=C(NCCN1CCc2ccccc2C1=O)c1cccs1 | -16% | 2.88
10 | c1nc(N2CCN(CCc3cscn3)CC2)c2ccsc2n1 | -16% | 2.19
11 | Cc1ncsc1C(=O)NCCCOC[C@H]1CCCO1 | 0% | -0.01
12 | COc1ccc(CC(=O)N2CCN(S(=O)(=O)N3CC(C)OC(C)C3)CC2)cc1 (centres undefined) | 4% | -0.49
13 | Cc1nonc1OCCn1cnc(-c2ccccc2)c1[C@H]1CCOC1 | -8% | 1.09
14 | CCCc1cc(N2CCc3nn(CC)c(=O)cc3C2)n2ncnc2n1 | -6% | 0.63
15 | Cc1ccc(C(=O)NCC(F)(F)F)o1 | -10% | 0.91
16 | CC[C@H](C)N(Cc1c(-c2ccccc2)noc1N1CCOCC1)C(=O)c1ccccc1 | -8% | 1.4
17 | CC(C)(C)c1nc(C#N)c(NCCOc2ccccc2)o1 | 1% | -0.24
18 | Cc1nc(C(C)(C)NC(=O)C[C@@H]2C=CCC2)sc1C | -7% | 1.16
19 | Cc1ccc(NC(=O)CN2CCN(c3ccc4c(c3)OCCO4)C2=O)cc1F | -11% | 1.94
20 | NC(=O)c1nsc2c(=O)n(CC(=O)NCc3ccccc3)cnc12 | 2% | -0.39
21 | O=C1CCN(c2nc(C3CCCC3)nc3c2CCNCC3)CCN1 | 14% | -1.74

Row | SMILES | % Inhibition | Z score
22 | Cc1ccc(-c2ccc3nn(Cc4ccc5c(c4)OCO5)c(=O)n3n2)cc1C | 2% | -0.25
23 | CC(Oc1ccccc1)C(=O)NC1CC2CCC1C2 (centres undefined) | -26% | 2.33
24 | CC[C@](C)(NC(=O)c1cccc(-n2cnnn2)c1)c1nc(C)cs1 | -7% | 1.33
25 | Cc1cc(CNCc2ccccc2)c(C)n1-c1cccc(S(=O)(=O)N2CCOCC2)c1 | 4% | -0.62
26 | CCc1nc(CN2C[C@@H]3CC[C@H]2CN(C2CCOCC2)C3)cs1 | 7% | -0.93
27 | COc1ccc(C(=O)CN2C=CCC=C2c2nc(-c3ccc(Cl)cc3)cs2)cc1 | 75% | -6.73
28 | C[C@@H](c1ccccc1Br)N(C)CC(C)(C)S(C)(=O)=O | -2% | 0.3
29 | O=S(=O)(Nc1cccc2oc(C(F)(F)F)nc12)c1ccc(Br)cc1 | 18% | -3.12
30 | Cc1cc(C(=O)N(C)C(C)C(C)S(C)(=O)=O)c(C)o1 (centres undefined) | -14% | 1.29
31 | O=C(CCN1CCC[C@H](n2cncn2)C1)c1ccccc1 | -11% | 1.53
32 | CCn1c(-c2ccc(C(=O)NCc3ccc(OC)c(OC)c3)cc2)nc2cccnc21 | 0% | -0.06
33 | CC1(NC(=O)C[C@H](O)c2cc(Cl)cc(Cl)c2)CCOCC1 | -3% | 0.31
34 | CCC(C)C(OC)C(=O)Nc1ccc(C)nc1 (centres undefined) | -8% | 0.85
35 | NC(=O)[C@@H]1COCCN1CC(=O)N1CCC(Cc2ccccc2)CC1 | -1% | 0.13
36 | C#CCCC1(CCC(=O)N2CCN(Cc3cc(C)no3)CC2)N=N1 | -17% | 1.95
37 | Cc1nc(O)[nH]c(=O)c1S(=O)(=O)N(Cc1ccccc1)Cc1ccccc1 | 10% | -1.2
38 | O=C([C@H](Cc1ccccc1)NS(=O)(=O)c1ccccc1F)N1CCOCC1 | -9% | 1.32
39 | Cc1noc(C)c1CC(=O)N[C@@H](C)c1nnc2n1CCCCC2 | -6% | 0.92
40 | CCNC(=O)c1csc(COc2ccc3c(c2)[C@H](c2ccccc2)N(C(=O)c2ccco2)CC3)n1 | -8% | 0.71
41 | Cc1ccccc1CCNC(=O)[C@H]1CCCN(c2nc3ccc(Br)cc3[nH]2)C1 | 6% | -1.11
42 | COc1ccc(F)c(CN2CCC[C@@]3(CCN(C(=O)Cn4ccnc4)C3)C2)c1 | -9% | 1.25
